We go through 86 compounds from PubChem BioAssay AID463173 (ICCB-Longwood Screening Facility, Harvard Medical School, 2010).

The campaign covered roughly 52,000 compounds. About 4,300 (8.3%) were called active. Cut-off read from the data, not from the text of the source: active = survival mostly below about 52% (no sharp cut-off); inactive = mostly above about 56%. The list shows a part of the results.

The assay relates to DeltatarO mutant. The assay can be described thus: growth inhibition of S. aureus wild type versus tarO mutant, primary screen, teichoic acid synthesis inhibitors, RN4220, OD600 (AID 463173). The following applies: OD600, 18 h, hits give low values, screened at 18.75 µg/mL (by protocol).
Take `CCCN(Cc1cccs1)C(=O)Nc1cc(Cl)c(OC)cc1OC`: the survival is inactive: 62%. For `CCCN(CCC)CCCNC(=O)Cn1cnc2sc(C)c(S(=O)(=O)N3CCCCC3)c2c1=O`, the survival is inactive: 81%. As to `O=C(c1ccc2c(c1)N(Cc1ccccc1F)C(=O)c1ccccc1S2(=O)=O)N1CCOCC1`, the survival was inactive: 89%. Regarding `CCc1ccccc1NC(=O)CCn1nc(C)c2c(C)n(-c3ccccc3)nc2c1=O`, the survival is inactive: 69%.

For the compound `COc1cccc(C2CC(=O)Nc3cc4c(cc32)OCCO4)c1OC` (stereo unspecified), the survival is inactive: 72%. Consider `CCOC(=O)c1ccccc1NC(=O)Cn1ncc2c([nH]c3ccccc32)c1=O`, for which the survival is inactive: 94%. Take `Cc1ccccc1Cn1c(SCc2ccc(C(=O)NC(C)c3ccccc3)cc2)nc2ccncc21` (stereo unspecified): the survival is inactive: 83%.

For `O=C(NCCc1cccs1)c1ccc(Cn2c(SCc3ccc(F)cc3)nc3cccnc32)cc1`, the survival was inactive: 71%. The figure for `CC1CCN(c2ncnc3c2cnn3-c2ccc(F)cc2)CC1` is inactive: 70%; for `Fc1ccc(NCc2cccn2-c2nnc(N3CCOCC3)s2)cc1` it is inactive: 67%; for `CCc1ccc(-n2c(=O)c3c4c(sc3n(CC(=O)NCCCOC)c2=O)CCCC4)cc1` it is inactive: 124%. The figure for `O=c1[nH]c2ccc(N=Cc3ccccc3C(F)(F)F)cc2[nH]1` is active: 71%. On to `COc1ccc(C(=O)CN2CCN(S(=O)(=O)c3ccc(C(C)C)cc3)CC2)cc1`, for which the survival is inactive: 81%.

Take `COc1cccc(CN2CCc3nc(Nc4ccc5c(c4)OCCO5)ncc3C2)c1`: the survival was inactive: 102%. In the case of `Cc1ccc2nc(N(Cc3cccnc3)C(=O)Cc3ccccc3)sc2c1`, the survival was inactive: 70%.

Regarding `COC(=O)C1=C(c2ccccc2)c2ccccc2S(=O)(=O)N1CC(=O)Nc1cccc(C(C)=O)c1`, the survival is inactive: 50%. On to `CC1CCN(C(=O)c2ccc3nc(N4C(=O)CCC4=O)sc3c2)CC1`, for which the survival was inactive: 95%. In the case of `COc1cccc(NC(=O)c2sc3nc(C)c(C(=O)Nc4ccc(C)cc4C)c(-c4ccccc4Cl)c3c2N)c1`, the survival is inactive: 101%. With `CCc1ccc(-c2nc(CN3CCC(C(=O)NCCc4ccc(Cl)cc4)CC3)c(C)o2)cc1`, the survival is inactive: 77%. With `CCOc1ccc(-n2c(-c3ccc(C)cc3)nc3c(cnn3-c3ccccc3)c2=O)cc1`, the survival was active: 42%. In the case of `CCN(CC)CCC(=O)c1ccc(OC(C)C)cc1`, the survival was inactive: 92%.

On to `CCOC(=O)C1CCC(CN(Cc2ccccc2)S(=O)(=O)c2ccc(Cl)cc2)CC1` (stereo unspecified), for which the survival was inactive: 70%.

Take `Cc1ccc(NC(=O)CCn2c(=O)c3cccn3c3ccccc32)c(Cl)c1`: the survival was inactive: 57%. The figure for `COc1ccc(CCNC(=O)CCc2c(C)nc3c(c(C)nn3-c3ccc(C)c(C)c3)c2C)c(OC)c1OC` is inactive: 64%; for `CCOC(=O)c1c(S(=O)(=O)N2CCC(C(=O)Nc3ccccc3OC)CC2)c(C)n(CC)c1C` it is inactive: 80%; for `O=S(=O)(c1ccc(Br)cc1)c1nc(-c2ccco2)oc1SCc1ccccc1Cl` it is inactive: 149%. Turning to `CCCCOc1ccc(CNC(=O)CN2CCSc3ccccc32)cc1`, the survival was inactive: 92%. Regarding `CCN(CC)c1nc(OCC(F)(F)F)nc(N(c2ccccc2)c2ccccc2)n1`, the survival is inactive: 76%. For `COc1cccc(CNC(=O)CCn2c(=O)c3cccn3c3ccc(F)cc32)c1OC`, the survival was inactive: 59%.

Turning to `COc1ccc(-n2nc(C(=O)N(C)c3cccc(C(F)(F)F)c3)c3c4ccccc4n(C)c3c2=O)cc1`, the survival was inactive: 113%. The figure for `CCC(C(=O)N1CCN(c2cccc(C)c2C)CC1)n1nc(C)c2sc3ccccc3c2c1=O` (stereo unspecified) is inactive: 64%. The figure for `CCCNC(=O)C1CCC(Cn2c(=O)c3sccc3n(Cc3cccc(OC)c3)c2=O)CC1` (stereo unspecified) is inactive: 67%. For the compound `CCn1nnc2cc(C(=O)Nc3cccc(Cl)c3)ccc21`, the survival is inactive: 94%. Take `Cc1nc2nc(NC(=O)c3cccc(Cl)c3)[nH]n2c(=O)c1Cc1ccccc1`: the survival is inactive: 111%. The figure for `O=C(O)CC(c1ccc(F)cc1)c1ccco1` (stereo unspecified) is inactive: 97%; for `Cc1ccc(S(=O)(=O)c2nc(-c3cccs3)oc2N2CCCCC2)cc1` it is active: 39%; for `COc1ccc2c(c1)c1c(c(=O)n(-c3ccc(OC)c(OC)c3)c(=O)n1Cc1ccccc1C)n2C` it is inactive: 92%.

For `CC(=O)c1cccc(NS(=O)(=O)c2ccc3[nH]c4c(c3c2)CCCCCC4)c1`, the survival was inactive: 79%. With `Cc1ccc(-n2ncc(C(=O)NCCN3CCN(C)CC3)c2C2CCN(C(=O)OC(C)(C)C)CC2)c(C)c1`, the survival is inactive: 92%. As to `N#CC1=C(N)SC(N)=C(C#N)C1CCC1CCCCC1`, the survival was active: 2%. The figure for `COc1cccc(N2CC(NC(=O)Cc3cccs3)CC2=O)c1` (stereo unspecified) is inactive: 69%; for `CN1C(=O)CC(=O)N(C)c2cc(S(=O)(=O)N(C)Cc3ccccc3)ccc21` it is active: 3%.

With `CCn1cc(C(=O)NCCc2ccc(C)cc2)c(=O)c2cc(S(=O)(=O)N(C)C)ccc21`, the survival was inactive: 82%. Consider `CCCCN(CCCC)CCNC(=O)c1cn(C)c2ccc(S(=O)(=O)N3CCOCC3)cc2c1=O`, for which the survival is inactive: 93%. As for `Cc1c(Cl)cccc1NS(=O)(=O)c1ccc2[nH]cc(C(=O)NC3CCCC3)c(=O)c2c1`, the survival is active: 7%. On to `c1ccc(Cn2nnnc2C(c2ccccc2)N2CCN(Cc3ccncc3)CC2)cc1` (stereo unspecified), for which the survival was inactive: 78%. The figure for `C#CC(C)(C)NS(=O)(=O)c1cc(-c2nnc(Nc3ccc(C)cc3)c3ccccc23)ccc1C` is inactive: 69%; for `Cc1ccc(NC(=O)CN(c2ccccc2)S(=O)(=O)N(C)C)cc1Cl` it is inactive: 58%.

In the case of `Cc1ccc(NC(=O)NCc2ccc3c(c2)CCN3C(=O)c2ccccc2)c(Cl)c1`, the survival was inactive: 82%. For `COc1ccc(OC)c(S(=O)(=O)Nc2cc3c(cc2C)n(C)c(=O)c(=O)n3C)c1`, the survival is inactive: 84%. Consider `CN(Cc1ccccc1)C(=O)CN1C(=O)CSc2ccc(S(=O)(=O)N3CCOCC3)cc21`, for which the survival was inactive: 88%. Then `COc1ccc(NC(=O)CCS(=O)(=O)c2nc(-c3cccs3)cc(C(F)(F)F)n2)cc1OC`, with inactive: 77%.

For the compound `O=C(c1noc2c1CCCCC2)N1CCN(c2ccc(Cl)cc2)CC1`, the survival is inactive: 98%. Consider `COc1ccccc1NC(=O)Cn1c(=O)n(Cc2ccc3c(c2)OCO3)c(=O)c2oc3ccccc3c21`, for which the survival was inactive: 77%.

With `CCc1ccc(-c2cn3c(n2)sc2cc(C(=O)NCCc4ccc(OC)cc4OC)ccc23)cc1`, the survival is inactive: 59%. The figure for `Oc1c(C(c2ccccc2)N2CCC3(CC2)OCCO3)sc2nc(-c3ccco3)nn12` (stereo unspecified) is inactive: 69%; for `Cc1nc(N2CCOCC2)c2c(C(=O)NCc3cccc(Cl)c3)c(C)oc2n1` it is inactive: 98%.

Regarding `CCCC(=O)C1=C(O)C(C(=O)OC)C(C)(C)CC1=N` (stereo unspecified), the survival is inactive: 95%. Then `COc1ccc(-c2nc3c(c(SCC(=O)Nc4ccc(C(=O)O)cc4)n2)Cc2ccccc2O3)cc1`, with inactive: 66%. With `CCOC(=O)Cc1ccc(NC(=O)Nc2cccc(OCc3cc(=O)n4cc(C)ccc4n3)c2)cc1`, the survival was inactive: 92%. Turning to `O=C(CCCCCn1c(=O)c2sccc2n(CC(=O)Nc2cccc(Cl)c2)c1=O)NCc1ccc2c(c1)OCO2`, the survival is inactive: 57%.

Take `CCc1cccc(NC(=O)CSc2ncc3c(n2)-c2ccc(Cl)cc2N(Cc2ccccc2)S3(=O)=O)c1`: the survival was inactive: 92%. Take `COc1cccc(C(=O)NC2(C(F)(F)F)C(=O)Nc3c2c(=O)[nH]c(=O)n3-c2ccc(C)cc2)c1` (stereo unspecified): the survival was inactive: 83%. The figure for `CCc1c(C)sc2c1CCN(C(=O)Nc1cc(OC)c(OC)c(OC)c1)C2c1ccccc1` (stereo unspecified) is active: 25%; for `COc1ccc(NC(=O)c2cn(CC(C)C)c(=O)c3cc(OC)c(OC)cc23)cc1Cl` it is inactive: 50%. For `NS(=O)(=O)c1ccc(CCNC(=O)CCCCCn2c(=O)[nH]c3ccccc3c2=O)cc1`, the survival was inactive: 74%. As to `Cc1ccc(NC(=O)c2nn(C)c3c2CS(=O)(=O)c2ccccc2-3)c(Cl)c1`, the survival is inactive: 59%. Then `CCOc1ccc(C(=O)c2cn(CC(=O)Nc3ccc(F)cc3)c3cc4c(cc3c2=O)OCCO4)cc1`, with inactive: 109%.

With `O=C(CSc1nnc(-c2ccccc2)c(-c2ccccc2)n1)NC1CCCC1`, the survival is inactive: 77%. Regarding `CCOc1ccc(OCC)c(NS(=O)(=O)c2c(C(=O)N3CCCCCC3)c(C)n(C)c2C)c1`, the survival was inactive: 76%. Then `O=C(NCCCO)C(=O)NCC(c1ccc2c(c1)OCO2)N1CCOCC1` (stereo unspecified), with active: 37%; and `Cc1ccc(OCCn2c(CCNC(=O)C3CCCCC3)nc3ccccc32)cc1`, with inactive: 61%; and `Cc1ccc2c(=O)cc(C(=O)Nc3ccc(S(=O)(=O)N(C)Cc4ccccc4)cc3)oc2c1C`, with inactive: 92%. For `COc1cccc(C(=O)NCc2cn3ccccc3n2)c1`, the survival was inactive: 98%. On to `c1cncc(-c2nc(NCc3ccco3)c3ccccc3n2)c1`, for which the survival is inactive: 88%. For the compound `COc1ccc(S(=O)(=O)NCC(c2ccc(N(C)C)cc2)N2CCCC2)cc1` (stereo unspecified), the survival was inactive: 69%. The figure for `CCOC(=O)C1CCCN(S(=O)(=O)c2cc3c4c(c2)CC(=O)N4CCC3)C1` (stereo unspecified) is inactive: 93%; for `O=C(O)C1C2C=CC(C2)C1C(=O)N1CCN(Cc2ccccc2)CC1` (stereo unspecified) it is inactive: 59%; for `CCC(C)(C)NC(=O)C1CCN(S(=O)(=O)c2c(C)noc2/C=C/c2ccc(C)cc2)CC1` it is active: 52%.

In the case of `COc1ccc(NC(=O)C2=CC(c3ccc4c(c3)OCO4)=NS(=O)(=O)N2C)cc1`, the survival was inactive: 88%. Regarding `CCc1ccc(NC(=O)Cn2c(=O)n(CCCCC(=O)NCCc3ccccc3)c(=O)c3ccccc32)cc1`, the survival was inactive: 84%. As for `COc1ccc(C)cc1NC(=O)C1COc2ccccc2C1` (stereo unspecified), the survival is inactive: 83%. As for `Fc1ccc(-n2cc(-c3ccccc3)c3c(NCCc4ccccc4)ncnc32)cc1`, the survival was inactive: 77%. For the compound `O=C(Nc1ccc2c(c1)OCO2)c1cc(-c2ccc(Br)cc2)on1`, the survival is inactive: 63%. With `COC(=O)CN(c1ccc(C)c(C)c1)S(C)(=O)=O`, the survival is inactive: 68%. Then `CCOC(=O)C1(CC)CC(C)(c2csc(N)n2)OC1=O` (stereo unspecified), with inactive: 93%.
